# Test results reported in article PMC3618364.
# Results are given in words; binding and its absence hold for the method and conditions named. For some of these results: In cells and extracts the contact can be indirect. Some binding calls cover weakened binding; strength is not graded here.
# T1: Gal4BD-Slx5 (S. cerevisiae) (UniProt P32828)
# T1 sequence: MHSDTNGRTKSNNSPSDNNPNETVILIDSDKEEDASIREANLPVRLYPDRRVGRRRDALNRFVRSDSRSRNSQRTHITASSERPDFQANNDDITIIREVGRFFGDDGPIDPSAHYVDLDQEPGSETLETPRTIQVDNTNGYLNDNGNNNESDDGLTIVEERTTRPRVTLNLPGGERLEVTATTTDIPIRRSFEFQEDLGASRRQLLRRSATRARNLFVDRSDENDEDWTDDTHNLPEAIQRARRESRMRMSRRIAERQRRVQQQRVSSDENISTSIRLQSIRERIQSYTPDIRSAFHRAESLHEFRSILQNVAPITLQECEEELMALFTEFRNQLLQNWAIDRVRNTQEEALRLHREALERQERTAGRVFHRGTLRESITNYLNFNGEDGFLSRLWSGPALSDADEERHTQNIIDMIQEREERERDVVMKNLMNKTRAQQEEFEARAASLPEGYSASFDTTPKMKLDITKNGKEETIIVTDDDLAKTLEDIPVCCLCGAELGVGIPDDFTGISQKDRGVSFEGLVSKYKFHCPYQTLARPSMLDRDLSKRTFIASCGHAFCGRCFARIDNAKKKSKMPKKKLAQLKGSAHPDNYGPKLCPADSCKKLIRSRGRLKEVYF
# Legend:
# [1] = biological target: Gal4BD-Smt3 (SUMO) (S. cerevisiae) [SUMO: Q12306]; assay: two-hybrid; Gal4AD and Gal4BD fusions (pGADT7, pGBKT7) in reporter strain PJ69-4A; His (10 mM 3AT) and Ade reporter phenotypes on plates
# [2] = biological target: T1, Gal4BD-Slx5 (S. cerevisiae); assay: as above
# [3] = biological target: HA-Uls1 (S. cerevisiae) (UniProt Q08562); assay: co-IP; extracts of strain ZY528 (genomic TAP-Slx5) with a plasmid for HA-Uls1; IgG beads (TAP-Slx5) or HA beads, 1.5 hr at 4°C, RNP buffer (20 mM HEPES pH 7.4, 100 mM NaCl, 0.1% NP-40); Western blot with anti-HA and anti-TAP
binding [1],binding [2],binding [3],Binder
no binding,binds,–,"Gal4AD-Uls1(554-955) (domain or fragment, UniProt Q08562 554-955) KLKEKRQLTKSKLDSINLKMYNYNEQWKSFVHSKNINLQKSLAALERSARDSKASATVNKRNECLAEKEKLDQMLKEGTLSFSTYKQLTGEIQQKLNDLKLGDQRTTDINSVLPIVRQPLAKRDLFIKSIDTAKDLLAKNTSRTEMTKRILYRHLDNLVSYKNFFEDGRSLIDINRRHVAHESAQILFTNGVKMPIVFETLQDYGIKFSNPAIVNPDRRAQYFKSIEVARDLISKSTRSEDAKRKITRFLNIIEEFRKDIDTGFPPTPLKREGVGKAVVGLRQQGLKMDRLYENLRRYKIPITSEELLQQSYLFPVNADQRPPSNWNIVENTEDTSSTANDLSMQDEFHISNMHAAEDQEQIRALLENVKQSESIIDGEALTPEDMTVNLLKHQRLGLHWLL"
binds,no binding,–,"Gal4AD-Uls1Δ531-897 (protein, UniProt Q08562) MAAVPTIDLTLADSDNEDIFHSFSSSTSVDKIDIRKENGKLRMAGLEVAQSNDDAARQAFHVFKTNISNNETFDTILSKSKTITDSTFNNEKSSNEVKQQQVLKEETMGSSNDEKKTQESSPSAEMIKLFYENDDVPLSDSFKQKEEGKRINQDEQVKENICGISSSYVSKDYDGVEDDFEPNTCQDSNLDFQEEKLNLNNKPSQQQFSDPETKDNSLKSENKDQIKGVTTTSYRDLPIESSAFQDSETQNNSKNTIPNIVNEKRTPALPSNLSSVESSLKNETAKVEGKTTVRLPGLQNNVALLEQEQSELFKHFSEQPVDISDFGRKIKRKHSGDFADNKILKRPILPSKNMDHTTHNSHDSEQKNSSIIILSDEDESGAGINDIESPLKVSEPNTADALRSSVPEVISLLDLPNIDLNNSVIKEASGSNSIPTSETDAQSSSSSVLQGTIMTEQATQSSQHECNSSLDTLKKNHQKLLKDLNSRESELRNALSCCKTNSEILRRKLSRREKEVSDAEKHWQLLLTSMQDEFHISNMHAAEDQEQIRALLENVKQSESIIDGEALTPEDMTVNLLKHQRLGLHWLLQVENSAKKGGLLADDMGLGKTIQAIALMLANRSEESKCKTNLIVAPVSVLRVWKGELETKVKKRAKFTTFIFGGSGNGKVKHWRDLARYDAVLVSYQTLANEFKKHWPKKLDGEQNQLPAVPHIQALNRLKTSNEYYSPFFCNDSTFYRILLDEGQNIKNKNTRASKACCTINGMYRWVLSGTPIQNSMDELYSLIRFLRIPPYHKEQRFKLDIGRFFQRNKQYQYDNEDRKNALRKVRVLLNAIMLRRSKADKIDGKPLLELPPKIVEVDESRLKGEELKFYTALESKNQALAKKLLNNSTRGSYSSVLTLLLRLRQACCHSELVVMGEKKAEGTKVANGKSFEDDWLRLYYKITHMSGEAQAQVITSMNSMTCFWCMEQLEPEAMSVLTGCGHLICDTCIEPFIEESSMLPQAKKTKGGAFAIPCKDCQRLTNEKDIVSHKLYDQVINQGFTEEDLHAEYLSEMEKQKIQQKNVYVPNFESLEPSTKIEQCIQVIQRVFDESATEKIIIFSQFTTFFEILEHFLKNKLNFPYLKYIGSMNAQRRSDVINEFYRDPEKRILLISMKAGNSGLTLTCANHVVIVDPFWNPYVEEQAQDRCYRISQTKKVQVHKLFIKDSVEDRISELQKRKKEMVDSAMDPGKIKEVNSLGRRELGFLFGLNAL"
–,–,binds,"TAP-Slx5 (protein, UniProt P32828 1-619) MHSDTNGRTKSNNSPSDNNPNETVILIDSDKEEDASIREANLPVRLYPDRRVGRRRDALNRFVRSDSRSRNSQRTHITASSERPDFQANNDDITIIREVGRFFGDDGPIDPSAHYVDLDQEPGSETLETPRTIQVDNTNGYLNDNGNNNESDDGLTIVEERTTRPRVTLNLPGGERLEVTATTTDIPIRRSFEFQEDLGASRRQLLRRSATRARNLFVDRSDENDEDWTDDTHNLPEAIQRARRESRMRMSRRIAERQRRVQQQRVSSDENISTSIRLQSIRERIQSYTPDIRSAFHRAESLHEFRSILQNVAPITLQECEEELMALFTEFRNQLLQNWAIDRVRNTQEEALRLHREALERQERTAGRVFHRGTLRESITNYLNFNGEDGFLSRLWSGPALSDADEERHTQNIIDMIQEREERERDVVMKNLMNKTRAQQEEFEARAASLPEGYSASFDTTPKMKLDITKNGKEETIIVTDDDLAKTLEDIPVCCLCGAELGVGIPDDFTGISQKDRGVSFEGLVSKYKFHCPYQTLARPSMLDRDLSKRTFIASCGHAFCGRCFARIDNAKKKSKMPKKKLAQLKGSAHPDNYGPKLCPADSCKKLIRSRGRLKEVYF"
no binding,binds,–,"Gal4AD-Uls1(531-897) (domain or fragment, UniProt Q08562 531-897) ARGGRTISSTQQILVDEAENQLNKLKEKRQLTKSKLDSINLKMYNYNEQWKSFVHSKNINLQKSLAALERSARDSKASATVNKRNECLAEKEKLDQMLKEGTLSFSTYKQLTGEIQQKLNDLKLGDQRTTDINSVLPIVRQPLAKRDLFIKSIDTAKDLLAKNTSRTEMTKRILYRHLDNLVSYKNFFEDGRSLIDINRRHVAHESAQILFTNGVKMPIVFETLQDYGIKFSNPAIVNPDRRAQYFKSIEVARDLISKSTRSEDAKRKITRFLNIIEEFRKDIDTGFPPTPLKREGVGKAVVGLRQQGLKMDRLYENLRRYKIPITSEELLQQSYLFPVNADQRPPSNWNIVENTEDTSSTANDLSM"
